Measured values taken from the supplement of paper PMC4604168 (melanoma cell lines).
The other results are listed elsewhere or left out. Most values come without repeats; read them as rough.

Columns and labels:
Assay in all cases: cell count relative to DMSO control; melanoma cells; higher = more viable cells
Settings in all cases: library dose: standard library concentration; 72 h
SkMel28 = tested on: SkMel28
SkMel2 = tested on: SkMel2
SkMel30 = tested on: SkMel30
SkMel5 = tested on: SkMel5
UACC257 = tested on: UACC257
UACC62 = tested on: UACC62
WM115 = tested on: WM115
WM1716 = tested on: WM1716
WM1745 = tested on: WM1745
WM3526 = tested on: WM3526
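Further: cells treated in 1,536-well plates, then fixed and DAPI-stained, with nuclei counted from automated high-throughput microscope images.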

| SMILES | cell count (SkMel28) [%] | cell count (SkMel2) [%] | cell count (SkMel30) [%] | cell count (SkMel5) [%] | cell count (UACC257) [%] | cell count (UACC62) [%] | cell count (WM115) [%] | cell count (WM1716) [%] | cell count (WM1745) [%] | cell count (WM3526) [%] |
| --- | --- | --- | --- | --- | --- | --- | --- | --- | --- | --- |
| Cc1cn(-c2cc(NC(=O)c3ccc(C)c(Nc4nccc(-c5cccnc5)n4)c3)cc(C(F)(F)F)c2)cn1 [nilotinib] + C[C@]1(O)C[C@@H](c2nc(-c3ccc4ccc(-c5ccccc5)nc4c3)c3c(N)nccn32)C1 [OSI906] (first compound 1 µM, partner dose 2 µM) | 45 | 61.3 | 74.3 | 53.2 | 88.5 | 60 | 82 | 78.8 | 42.3 | 49 |
| Cc1cc(Nc2cc(N3CCN(C)CC3)nc(/C=C/c3ccccc3)n2)n[nH]1 + C[C@@H](Oc1cc(-c2cnn(C3CCNCC3)c2)cnc1N)c1c(Cl)ccc(F)c1Cl [Crizotinib] (first compound 0.2 µM, partner dose 1 µM) | 44.1 | 72.6 | 73.2 | 54.1 | 79.2 | 51.8 | 37.8 | 69.6 | 31.5 | 60.4 |
| Cc1cc(Nc2cc(N3CCN(C)CC3)nc(/C=C/c3ccccc3)n2)n[nH]1 + Cc1cc(N2CCOCC2)cc2[nH]c(-c3c(NC[C@@H](O)c4cccc(Cl)c4)cc[nH]c3=O)nc12 [BMS536924] (first compound 0.2 µM, partner dose 1 µM) | 48.9 | 74.4 | 94.6 | 67.7 | 93.7 | 62.2 | 51.6 | 87.8 | 33.6 | 69.5 |
| CC(C)C[C@H](NC(=O)[C@H](Cc1ccccc1)NC(=O)c1cnccn1)B(O)O [Bortezomib] + CC(=O)c1c(C)c2cnc(Nc3ccc(N4CCNCC4)cn3)nc2n(C2CCCC2)c1=O [palbociclib] (first compound 0.005 µM, partner dose 0.2 µM) | 34.5 | 58.6 | 36.3 | 31.4 | 82.2 | 61.1 | 28 | 14.1 | 27.9 | 39.7 |
| Cn1c(=O)n(-c2ccc(C(C)(C)C#N)cc2)c2c3cc(-c4cnc5ccccc5c4)ccc3ncc21 + C#Cc1cccc(Nc2ncnc3cc(OCCOC)c(OCCOC)cc23)c1 [erlotinib] (first compound 0.02 µM, partner dose 4 µM) | 50.4 | 73.3 | 51.9 | 58.8 | 96.8 | 49.8 | 60 | 63.8 | 67.9 | 79.6 |
| CC(C)C[C@H](NC(=O)[C@H](Cc1ccccc1)NC(=O)c1cnccn1)B(O)O [Bortezomib] + O=C(CCCCCCC(=O)Nc1ccccc1)NO [vorinostat] (first compound 0.005 µM, partner dose 0.4 µM) | 25.6 | 32.5 | 27.8 | 34.6 | 64.3 | 73 | 24.2 | 19.7 | 8.16 | 18 |
| Cc1cc(Nc2cc(N3CCN(C)CC3)nc(/C=C/c3ccccc3)n2)n[nH]1 + COCC[n+]1c2c(n(Cc3cnccn3)c1C)C(=O)c1ccccc1C2=O [YM155] (first compound 0.2 µM, partner dose 0.002 µM) | 41.2 | 41.2 | 83 | 34.7 | 28.5 | 58.3 | 63.9 | 73.5 | 62.9 | 63 |
| Cc1cn(-c2cc(NC(=O)c3ccc(C)c(Nc4nccc(-c5cccnc5)n4)c3)cc(C(F)(F)F)c2)cn1 [nilotinib] + OCc1c[nH]c2ccccc12 [Indole-3-carbinol] (first compound 1 µM, partner dose 4 µM) | 78.7 | 69.5 | 73.2 | 67.7 | 108 | 65.6 | 89.1 | 99.4 | 108 | 70 |
| COc1ccc(C2=N[C@@H](c3ccc(Cl)cc3)[C@@H](c3ccc(Cl)cc3)N2C(=O)N2CCNC(=O)C2)c(OC(C)C)c1 [Nutlin-3] + O=C(O)c1ccc2c(c1)nc(Nc1cccc(Cl)c1)c1ccncc12 [CX4945] (first compound 0.5 µM, partner dose 2 µM) | 43.1 | 70.9 | 63.7 | 74.4 | 73.3 | 50.7 | 72 | 78.2 | 50.6 | 73.8 |
| Cc1cc(Nc2cc(N3CCN(C)CC3)nc(/C=C/c3ccccc3)n2)n[nH]1 + CC(=O)c1c(C)c2cnc(Nc3ccc(N4CCNCC4)cn3)nc2n(C2CCCC2)c1=O [palbociclib] (first compound 0.2 µM, partner dose 0.2 µM) | 34.9 | 56.7 | 70.7 | 56.6 | 74.1 | 60.6 | 38.3 | 45.3 | 53 | 57 |
| Cc1cc(Nc2cc(N3CCN(C)CC3)nc(/C=C/c3ccccc3)n2)n[nH]1 + CN1CCN(c2ccc3nc(-c4c(N)c5c(F)cccc5[nH]c4=O)[nH]c3c2)CC1 [Dovitinib] (first compound 0.2 µM, partner dose 0.5 µM) | 62.4 | 52.9 | 83.2 | 55.6 | 72.6 | 61.7 | 68.2 | 75.7 | 65.2 | 80.2 |
| Cc1cc(Nc2cc(N3CCN(C)CC3)nc(/C=C/c3ccccc3)n2)n[nH]1 + CN(C)S(=O)(=O)c1ccc2c(c1)/C(=C/c1cc3c([nH]1)CCCC3)C(=O)N2 [SU6656] (first compound 0.2 µM, partner dose 2 µM) | 26.3 | 66.8 | 92.2 | 76.7 | 83.1 | 56.9 | 36.2 | 63.3 | 47.8 | 65.7 |
| CC(C)C[C@H](NC(=O)[C@H](Cc1ccccc1)NC(=O)c1cnccn1)B(O)O [Bortezomib] + NC(=O)Nc1cc(-c2cccc(F)c2)sc1C(=O)N[C@H]1CCCNC1 [AZD7762] (first compound 0.005 µM, partner dose 0.1 µM) | 33.8 | 48.3 | 44.9 | 24.5 | 72.3 | 67.7 | 21.4 | 26.2 | 21.8 | 25.8 |
| CC(C)C[C@H](NC(=O)[C@H](Cc1ccccc1)NC(=O)c1cnccn1)B(O)O [Bortezomib] + Cc1cc(N2CCOCC2)cc2[nH]c(-c3c(NC[C@@H](O)c4cccc(Cl)c4)cc[nH]c3=O)nc12 [BMS536924] (first compound 0.005 µM, partner dose 1 µM) | 36.2 | 51.3 | 35.5 | 22.4 | 72.7 | 63.2 | 28.9 | 22.4 | 18.5 | 30.4 |
| Cn1c(=O)n(-c2ccc(C(C)(C)C#N)cc2)c2c3cc(-c4cnc5ccccc5c4)ccc3ncc21 + C[C@]1(c2nc3c(C(N)=O)cccc3[nH]2)CCCN1 [Veliparib] (first compound 0.02 µM, partner dose 7 µM) | 44.6 | 59 | 66.7 | 49 | 81.4 | 66.1 | 64.9 | 73.1 | 93.8 | 60.5 |
| Cc1cn(-c2cc(NC(=O)c3ccc(C)c(Nc4nccc(-c5cccnc5)n4)c3)cc(C(F)(F)F)c2)cn1 [nilotinib] + Nc1nc(F)nc2c1ncn2[C@@H]1O[C@H](CO)[C@@H](O)[C@@H]1O [fludarabine] (first compound 1 µM, partner dose 1 µM) | 0.284 | 1.17 | 17.3 | 19.8 | 42.4 | 59.5 | 78.9 | 99.2 | 72.4 | 28.7 |
| COc1ccc(C2=N[C@@H](c3ccc(Cl)cc3)[C@@H](c3ccc(Cl)cc3)N2C(=O)N2CCNC(=O)C2)c(OC(C)C)c1 [Nutlin-3] + Nc1cccc2c1CN(C1CCC(=O)NC1=O)C2=O [lenalidomide] (first compound 0.5 µM, partner dose 5 µM) | 55.9 | 101 | 93.3 | 85.9 | 80.8 | 58.4 | 83.6 | 79.2 | 103 | 105 |
| Cn1c(=O)n(-c2ccc(C(C)(C)C#N)cc2)c2c3cc(-c4cnc5ccccc5c4)ccc3ncc21 + OCCn1cc(-c2cnc3nnn(Cc4ccc5ncccc5c4)c3n2)cn1 [PF04217903] (first compound 0.02 µM, partner dose 5 µM) | 49.6 | 77.8 | 82.1 | 65.3 | 114 | 83.1 | 77.6 | 104 | 96.1 | 98.7 |
| COc1ccc(C2=N[C@@H](c3ccc(Cl)cc3)[C@@H](c3ccc(Cl)cc3)N2C(=O)N2CCNC(=O)C2)c(OC(C)C)c1 [Nutlin-3] + CC(=O)O[C@@]12CO[C@@H]1C[C@H](O)[C@@]1(C)C(=O)[C@H](O)C3=C(C)[C@@H](OC(=O)[C@H](O)[C@@H](NC(=O)OC(C)(C)C)c4ccccc4)C[C@@](O)([C@@H](OC(=O)c4ccccc4)[C@H]21)C3(C)C [Docetaxel] (first compound 0.5 µM, partner dose 0.0005 µM) | 17.4 | 18.7 | 40.8 | 31.2 | 67 | 40.5 | 38.9 | 37.6 | 36.3 | 35.8 |
| Cn1c(=O)n(-c2ccc(C(C)(C)C#N)cc2)c2c3cc(-c4cnc5ccccc5c4)ccc3ncc21 + O=C(CCCCCCC(=O)Nc1ccccc1)NO [vorinostat] (first compound 0.02 µM, partner dose 0.4 µM) | 32.4 | 53.3 | 67.5 | 57.3 | 74.1 | 74.5 | 87.6 | 85.4 | 93.9 | 58.4 |
| Cc1cn(-c2cc(NC(=O)c3ccc(C)c(Nc4nccc(-c5cccnc5)n4)c3)cc(C(F)(F)F)c2)cn1 [nilotinib] + O=C(O)[C@@H]1[O][Sb](=[O])([O][Sb]2(=[O])[O][C@H]([C@H](O)CO)[C@H](O)[C@H](C(=O)O)[O]2)[O][C@H]([C@H](O)CO)[C@@H]1O [stibogluconate] (first compound 1 µM, partner dose 10 µM) | 77.7 | 95.4 | 105 | 64.2 | 147 | 108 | 101 | 93.4 | 88.8 | 76.9 |
